# In the supplement of paper PMC11417369:
# Some of the results follow.
# Tested on: PfAP2-HC AP2 domain (GST-tagged)
# Assay: gcPBM binding intensity (ln(normalized median fluorescence intensity)); higher = stronger DNA binding
# Summary of the method: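 Each value is the highest Masliner-normalised natural-log median intensity across replicate spots of either orientation of a probe. The probes were primer-extended double-stranded 36-bp intergenic genomic sequences on an Agilent 4 × 180k array, alongside negative controls, exposed for 1 h to GST-tagged P. falciparum DNA-binding domains expressed in E. coli. Bound protein was picked up with Alexa488 anti-GST antibody and scanned at 488 nm.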
row,Sequence,gcPBM binding intensity (ln)
1,AATCATAAAATCATATGTACACATTTTTCCTATGAT [XGTACX_site8799],9.8
2,TATTATATGTAGTTGAGTACATATAAATACATATAT [XGTACX_site7933],9.62
3,AAATAGTTAAAAAGGCGTACACATAAATAAATAAAT [XGTACX_site2096],10.1
4,AATCTAATATAATGCACACATAAAAAAAAATCAAAC [CACACA_site3633],9.9
5,GTATATATATATATATATATAATAGTAACTTTTACT [CACACA_negctrl_site608],9.63
6,TGTAGTCTGGAGAAAAGTACATAGTATCTGGTAACA [XGTACX_site4940],9.47
7,TTTTAATTTTAAAAATGTACTTTTATTATTTTTAAT [XGTACX_site8300],9.53
8,TAAAAATTAAAATGTTGTACAATGATAAAATATTAT [XGTACX_site7874],9.76
9,ATTTATTTATATACAAGTACATAAAAAATTAACTTA [XGTACX_site6170],9.33
10,TATTTGATAAAAAAAAGTACTAGAATTTCGCTTTTG [XGTACX_site7754],9.3
11,CTCAACATATACGTAACACACATATAAATATAAATA [CACACA_site7749],9.89
12,TAAATTGAAATATATTGTACATTATCAACTAAGGGA [XGTACX_site1635],9.59
13,AAATTATAAAATAACTGTACCAATCCTTTTTTTTTA [XGTACX_site2229],9.51
14,CATATATACCTATATACACACATATAGATTTATATA [CACACA_site6451],9.78
15,TTATTCTACATATATGCATGTGTATGATCTGTTTAT [TGCATGCA_site782],9.75
16,ATATAAATGATATGTACACACATTTATATATATAAA [CACACA_site3475],9.89
17,AAAATAAAAAAAATGTAAAAGGTTAAAGTGAAATAT [CACACA_negctrl_site350],9.8
18,TGATATTATCTCTTCACACACTCACATACAGACAAA [CACACA_site1246],9.89
19,TATATTTAATTATTTTGTACTCATATAAAGATGATG [XGTACX_site5488],9.19
20,AAAAAAAAAATATTTGAACACACGAGGATATATAAA [CACACA_site139],9.74
21,CACACGCACGAACACACACACACACGCACGCACATA [CACACA_site6305],10.7
22,TACAGACATACATACACACATACATACAGACATACA [CACACA_site1941],10

row,Sequence,gcPBM binding intensity (ln)
1,TACATATTTACTATCACACACACGATATAAATAAAT [CACACA_site6701],10.3
2,TTATTTTACTTTTATGCAACTAAAAATATTGCTATA [XGTACX_negctrl_site277],9.6
3,AATAAAATTTGCGATGCACACAGAATAGCTAATATG [CACACA_site8983],9.89
4,CATATAGATTTGTTCACACACACACTAAAAAAAAAA [CACACA_site7212],10.3
5,ATATTCAATTCATACACACACAATTTAAGAATGATA [CACACA_site3883],9.99
6,ACAAATGTGAGAAAGACACACATATAATAAAAAACA [CACACA_site1156],9.93
7,ATGAATAAAAAAGGTGGTACATATATATATATATAT [XGTACX_site7893],9.7
8,ATACATATATAATTATGTACGTATATTTTATATAAC [XGTACX_site4292],10
9,AAAATAATATAAATAATATAAGTGAGCATATATATA [TGCATGCA_negctrl_site527],9.67
10,TGTCTTGTAAATTATTGTACTATTTAAAGTATAAAA [XGTACX_site7863],9.18
11,AAAATACCCGGACACACACACATATATATATATATT [CACACA_site6137],10.2
12,TAACTTCAAACAAAATATGGTAAAAGTGGTTGAAAA [CACACA_negctrl_site42],9.6
13,GATGATTCAATTTATGCACACTAAAAATTAATTATA [CACACA_site4308],9.51
14,CCATAGATATTTTATACACACATATAATATATTAAT [CACACA_site373],9.79
15,ACCAAAAGGGGATGTAGTACAATATGATTAGAAGAA [XGTACX_site3773],9.84
16,AAATAATATATTCCTTGTACTTATTTCAATGAATTC [XGTACX_site7719],9.64
17,ATAATCTGACAAATGTGTACACATATATATATATAT [XGTACX_site2379],9.89
18,AAGAATCACCAAATATGTACACACCTTAACATGTTT [XGTACX_site4272],9.89
19,CCACTGTATGAATGCACACATTCATAGAATTGCTAT [CACACA_site2676],9.91
20,GATATGATTAACTTATGTTATTCTTGATGGTTTCTT [GTGCAC_negctrl_site411],9.64
21,TAATTTGTTAAAGGTTCACATATGGTATATACTTCT [XGTACX_negctrl_site292],9.75
22,TAATAAGGTTACAACAAACACACAAAGGAATATACA [CACACA_site4089],10.1
